From publication PMC12136788
The other results are listed elsewhere or left out.

T1: UNK ZnF1-3 (human, UniProt Q9C0B0 31-174)
T1 sequence: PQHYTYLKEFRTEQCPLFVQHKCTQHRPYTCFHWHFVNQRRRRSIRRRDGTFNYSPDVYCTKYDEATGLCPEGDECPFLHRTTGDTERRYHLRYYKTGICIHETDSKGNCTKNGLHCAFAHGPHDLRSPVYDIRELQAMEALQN

B1: 119167067_119167187_3135_ncRNA_ENSMUSG00000041477_ENSMUST00000149651|mouse|control|control (ssRNA)
RNA: GGGAGUUCUACAGUCCGACGAUCGUCUGCCGAGUCUAUCUAAUCCCUUGACUGGCAGGUCUAAAACCAAGUUUUCAAAUGGCUUUCCCAAUUAUGCAAAUGACAUUCUGAACUGGGUCUGACUGACUCCUACGGCUGCCAUGUCAACAGAGGAUUGAGCAUCA
B2: chr11:77340908:77340909:-_ENSG00000074201_ENST00000525064|hu_hu|hu_hu_hu_mus_True|8_38 (ssRNA)
RNA: GGGAGUUCUACAGUCCGACGAUCGUUUGGAUCCCUGGACACCGCAUGUAAACUAAUGGUGGGGUAUUCCAGUGAGAAUCCUAAUCCCGAACCAUCUAACCAAGACAGGCGGCUCUCCGCGAUGUAAAGGGUACCAGUGCCGAGCAACAGAGGAUUGAGCAUCA
B3: chr10:127900053:127900054:+_ENSMUSG00000025369_ENSMUST00000099131|mus_mus|motif|central (ssRNA)
RNA: GGGAGUUCUACAGUCCGACGAUCACUCUUGAAUUUGUAGGCAGCUGCAAGAAUAUGGCAGAGGGAUCCUCCUGCUUUGAAAUCGGGGAAACAUUUGAUCGGCAGUUUAGUAAGCGGUGCGUUGCUGACAUGUUUGCCAAAAACCAACAGAGGAUUGAGCAUCA
B4: chr1:39494447:39494448:+_ENSG00000168653_ENST00000372967|hu_mus|hu_hu_hu_mus_False|1_108 (ssRNA)
RNA: GGGAGUUCUACAGUCCGACGAUCGCAUCGACCAGCCUUCUUAUAGGGCUGUUCUGCGCUUAGGAACAUAAAGUGCCGGUCCAGGCUGAUGCCCAGCUUUUUCUGUAUGUCAAGGAAAGGCAUGGCUCUGCAGUGCCCCCUUGACAACAGAGGAUUGAGCAUCA
B5: chr7:65419240:65419241:+_ENSG00000196715_ENST00000360768|hu_hu|motif|central (ssRNA)
RNA: GGGAGUUCUACAGUCCGACGAUCCGGGCGUCAGUCCUGCUUGGGUUGCAGCUGCCGCUUCCAGGCCUCGUUCAAGUAAACGGGUCGUUUGUAGUUGAUAAUGAGAAGAAGGAAGUUCAGCACGUACGUGACGAUGCAGAUGAUCAACAGAGGAUUGAGCAUCA
B6: 133328640_133340391_102_CDS_ENSG00000213585_ENST00000395044|human|control|control (ssRNA)
RNA: GGGAGUUCUACAGUCCGACGAUCGCCCUUGGUGAAGACAUCCCUGGCAGAUUUGCCAAGAUCGGCAUACGUGGGUGGCACAGCCAUCUUCUCAGAGGAUGUGGCGGCGGGCUCGGAGGCGGCUACGGCGGGGGCUGCGACGCGCAACAGAGGAUUGAGCAUCA
B7: chr2:230668852:230668853:-_ENSG00000153827_ENST00000389045|hu_hu|FALSE|FALSE (ssRNA)
RNA: GGGAGUUCUACAGUCCGACGAUCUAUCCUAAGAAUUGCUCUAAGGCACUUAUGUCUGACCGCAGGUCCUGCUGAGGAACUAUACACUUCAUAAAGAACACCAAAUAAUGUCUUAAUAAAAGACUUAGCCAGUUCCGGAUCCUCCAACAGAGGAUUGAGCAUCA
B8: chr5:162869536:162869537:+_ENSG00000113328_ENST00000340828|hu_hu|FALSE|FALSE (ssRNA)
RNA: GGGAGUUCUACAGUCCGACGAUCAUAAUCCAGUUAAGGGACCAUUUCAGGAAUUGUUGGAAGGUGAGUUAUUCUGUAGUAGCUAUGCUUCAAUUGCCGUGCAGUACGCCCAGAAACAAUCCAUUUCAACUUCUGAACAUUUGGCAACAGAGGAUUGAGCAUCA
B9: chr14:76904430:76904431:+_ENSMUSG00000022010_ENSMUST00000022587|mus_mus|mus_mus_mus_hu_True|78_88 (ssRNA)
RNA: GGGAGUUCUACAGUCCGACGAUCUGCAGCCAAAAACACCCUCGUGGCGGGAGGGAGCAAGCUCCAGCAGCCUUGUAUAAGCUAGAUAAAAUCUUCUGGCUUUCCGCAGCCCAGGGAGAAACAGAAAACGGCAGCCCUAAUUUACAACAGAGGAUUGAGCAUCA
B10: chr17:32491890:32491891:-_ENSMUSG00000024050_ENSMUST00000163107|mus_mus|FALSE|FALSE (ssRNA)
RNA: GGGAGUUCUACAGUCCGACGAUCGCCUCCAAGAGGCGCCGGUUUGAGGUUUUGGCUUGCUCCUUUGGAAACGGAAAAGAAAGAUGGAAAAGGGGGAGAGGACAGAGGAGAAAUGGGAGGGGAUAGGUGGCACAAAAGGGGAUCCAACAGAGGAUUGAGCAUCA
B11: 20712990_20713110_4682_CDS_ENSMUSG00000004099_ENSMUST00000004202|mouse|control|control (ssRNA)
RNA: GGGAGUUCUACAGUCCGACGAUCAACACUCACGACCCGGUGCUGCUCCGGGUGGAGCACCCGACCCUGCUUGCCCAUGGGCUCAGGGUUGGUGACAGUGGUGCUGAAGAAGCCAUCCCACUCCAGACGCCCGUAGAGGCCAGCCAACAGAGGAUUGAGCAUCA
B12: chr7:65705844:65705845:+_ENSG00000169902_ENST00000304842|hu_mus|hu_hu_hu_mus_False|88_88 (ssRNA)
RNA: GGGAGUUCUACAGUCCGACGAUCAAACGGAUCUUUGUUACAUAAAUAAGGGGCUGGCUCCCCAUGUUUAACAAUGACCUCCAGAAGGAAGGCUUGCAUGGCAGAAUCUAGCACUUCAUCUGUGACACCCGCCUCAUCCAAGCGCAACAGAGGAUUGAGCAUCA
B13: chr1:88248876:88248877:-_ENSMUSG00000026234_ENSMUST00000027438|perfect_dup|motif|central (ssRNA)
RNA: GGGAGUUCUACAGUCCGACGAUCUUCCCUUUUAUUACAGGAAUUUAAAGCUUCUUUAGCGUCUUCGAAUGAAGCAAACUCGGUAAAUGCAUACCCUUUAGAUUUGCCAUUUUGGUUCUGGGGUACUUUGAUAAAAGUUGCUUUCAACAGAGGAUUGAGCAUCA
B14: chr10:116622694:116622695:+_ENSG00000151553_ENST00000369248|hu_mus|FALSE|FALSE (ssRNA)
RNA: GGGAGUUCUACAGUCCGACGAUCAUACAAUGAAUCUGAAACCCUAGAAAAACAGACUGAGCACAGUGUCAAACAAGCUCCGAGCCAUGCCGCGGCCGUGGCUGUGGCUGUACAGCUCAGCUGGUGACUGCCCCCCCCCCCCGACAACAGAGGAUUGAGCAUCA
B15: 16285674_16285794_385_CDS_ENSG00000170315_ENST00000535788|human|control|control (ssRNA)
RNA: GGGAGUUCUACAGUCCGACGAUCGUCGGGGGGGAUGCCUUCUUUAUCUUGGAUCUUGGCCUUCACAUUUUCGAUGGUGUCACUGGGCUCCACCUCCAGAGUGAUGGUCUUGCCGGUCAGGGUCUUCACGAAGAUCUGCAUACCCAACAGAGGAUUGAGCAUCA
B16: chr9:130210260:130210261:-_ENSG00000197958_ENST00000361436|hu_hu|FALSE|FALSE (ssRNA)
RNA: GGGAGUUCUACAGUCCGACGAUCGCCCACUGACUGGGCAGUCCCCAGGAUCUCUUUAAUGGUUCCAGAGAGUUCUCUGGCUAAGGAUCGGUGCCGCAUCUGUCGAGCAAUGUUGACAAUCUCAUCAAAAGUGAUAUUCCCACUCAACAGAGGAUUGAGCAUCA
B17: chr9:42776432:42776433:-_ENSMUSG00000059495_ENSMUST00000165665|mus_mus|motif|central (ssRNA)
RNA: GGGAGUUCUACAGUCCGACGAUCGUUCAACUCAGUAGUGAUUCAGUUUCGAAAACCUCUUUCUUCUCUCCCAAAUCCCAACGGUCAAUAGAAAAGACAACGACAAGGGAAAUCCACCCAUUUUCAAGUGCCUGCCAUUUAGUGCAACAGAGGAUUGAGCAUCA
B18: chr16:94690093:94690094:+_ENSMUSG00000040785_ENSMUST00000117648|mus_hu|mus_mus_mus_hu_True|1_18 (ssRNA)
RNA: GGGAGUUCUACAGUCCGACGAUCGGGCUGGGAUGACGGACACACAGCCUCGAUUCCAGGGGGAAAAAGUCUUAGUCGAUACUAAUUAAAAAGUGUUAAUGAUUUUUGAAAAUCAGAUGUAGAUUAAAAAAGAUGAAAGCACUUCAACAGAGGAUUGAGCAUCA
B19: chr15:50791314:50791315:+_ENSG00000138592_ENST00000307179|hu_hu|motif|central (ssRNA)
RNA: GGGAGUUCUACAGUCCGACGAUCACCAUUAUCCUGAUAAGCAUUUCAAGAGUUGUGUUGCUGAGCCUUUUAAAAGAUAACGGGUUUAUAACCUAUGUCUCCUUAUGUGGCUACAUCAGUUACUCGUGGUCCCAAUGAAGUAUACAACAGAGGAUUGAGCAUCA
B20: chr5:107067165:107067166:-_ENSMUSG00000049606_ENSMUST00000112696|mus_hu|FALSE|FALSE (ssRNA)
RNA: GGGAGUUCUACAGUCCGACGAUCAACUGAAGCAGAGGUAGGUAGUUUUUUAUUGGAAUGGGUGGGAUUCUUAGCAUGUGCUACAUCUGAUAACAAAAAUAAAACUUGGUGUUGACUUGCUUUCUGUGGUGUAGACAGCUGAAGCAACAGAGGAUUGAGCAUCA
B21: 24711598_24711718_5686_CDS_ENSMUSG00000032855_ENSMUST00000035565|mouse|control|control (ssRNA)
RNA: GGGAGUUCUACAGUCCGACGAUCGCUAUCUGGCUCACUGGUUCUGAUACUCAGACCACCCACAGGCACCUGUAUGGCCACUUCAACUGUGGCAUUGACUGAGCCCAACUGGUUCUCAGCUGUGACUCUGACCAAGUGCAGGCCCAACAGAGGAUUGAGCAUCA
B22: chr7:44244176:44244177:+_ENSG00000106636_ENST00000223369|hu_mus|hu_hu_hu_mus_False|1_38 (ssRNA)
RNA: GGGAGUUCUACAGUCCGACGAUCACUGUCGCUCCGGACGUAGACAUGGCAAAGAUACUCUUGUUCUUUGACAGAAGCUCUGCUGCCUUUCCCCGAGCGCUCCACAAUCAGUUGACUUGUAAAGGUCAUGAAUUCCUGAACGCUCAACAGAGGAUUGAGCAUCA

The binders below were run against T1, UNK ZnF1-3 (assay: nsRBNS (natural sequence RNA bind-n-seq); RBNS binding buffer (assumed for nsRBNS): 25 mM Tris pH 7.5, 150 mM KCl, 3 mM MgCl2, 0.01% Triton X-100, 500 ug/ml BSA, 20 U/ml SUPERase-In, 4 C; UNK is unkempt and MSI1 is Musashi-1; names of the RNAs are library labels; protein concentration not given here; high values mean tight binding).

Binder	binding signal [enrichment R]
B1	0.862
B2	1.1
B3	0.885
B4	0.877
B5	0.688
B6	1.41
B7	1.13
B8	0.657
B9	2.02
B10	2.81
B11	1.01
B12	0.784
B13	0.771
B14	1.38
B15	0.684
B16	1.16
B17	1.52
B18	1.4
B19	0.749
B20	1.54
B21	0.962
B22	0.53
